The RNAGym collection of RNA variant scans (doi:10.7554/elife.90254)
The source gives no read counts; variants with many changes may rest on few reads.

B1: LINE1-mini (parent)
chain: GGCAGAGCUCAACACAGCGUGGCAAAGUGGCUGUGGCUAGACUGCC

Variants of: B1
Assay: self-cleavage, relative activity (ratio to wild type); higher = more cleavage; in vitro, sequencing; the parent is a self-cleaving ribozyme

Variant	self-cleavage
GGCAGGGCUCAACGCAGCGUGGCAAAGUGACUGUGGCUAGACAGCC [A6G A14G G30A U43A]	0.08
GGCAGGGCUCGACACAGCGUGGCAAAGUGGCUGUGACUGGACUGCC [A6G A11G G36A A39G]	0.01
GGCAGGGCUCAACACAGCGUGGCCUAGGGGCUGUGGCUAGACUGCC [A6G A24C A25U U28G]	0.03
GGCAGCGCGCAAAACAGAGUGGCAAAGUGGUUGUGCCUAGACUGCC [A6C U9G C13A C18A C31U G36C]	0.03
GGCAGGGCUCAACACAGCGUGGCAAUGUGGAUGUGGCUAGACUGCC [A6G A26U C31A]	0
GGCAGGGCUCAACACAGCGUGGCUAAGUGGCUGUGGCUCGACUGCC [A6G A24U A39C]	0.06
GGCAGCGCUCAACACAGCGUGGCAAAGAGGCUGUGGCUUGACUGCC [A6C U28A A39U]	0.08
GGCAGGGCUCAACACAGCGUGGCAAAGUGGCUGUGGCUAGGCUGAC [A6G A41G C45A]	0.04
GGCAGCGCUCAACACAGCGAGGCAAAGUGGGUGUGGCUAGUCUGCG [A6C U20A C31G A41U C46G]	0.04
GGCAGCGCCCAACACAGCGUGUCAAAGUAGCUGUGGUUGGAAUGCC [A6C U9C G22U G29A C37U A39G C42A]	0
GGCAGGGGUCUACACAGCGCAGCCAAGUGACUGUGGAUAGACUGCC [A6G C8G A11U U20C G21A A24C G30A C37A]	0.02
GGCAGCGCUCAACACAGCGCGGCAAAGUGGCUGUGGGUCGACUGGC [A6C U20C C37G A39C C45G]	0
GGCAGGGCUCUACACAGCGUGGCGAAGUGGCUGUGGCUAGACUGCC [A6G A11U A24G]	0.03
GGCAGGGCUCAACUCAGCGUGGCAAAGUGGCUGUGGCUAGAUUGCC [A6G A14U C42U]	0.06
GGCAGGGCUCAACUCAGCGUGGCAACGUGCCUGUGGCUAGACUGCC [A6G A14U A26C G30C]	0.14
GGCAGGGCUCAACACCGUGUGGCAAAGUGGCAGUGGCUAGACUGCC [A6G A16C C18U U32A]	0.03
GGCAGGGCUCAACUCAGCGUGACAAAGUGGCUGUGGCUAGACUGCC [A6G A14U G22A]	0.2
GGCAGGGCUCAACACAGCGUGGCGAAGUGGCUGUGGCUAGACUGAC [A6G A24G C45A]	0.13
GGCAGCGCUCAACACAGCGUGGCAAAGUGGCGCUGGCUAGACUGCC [A6C U32G G33C]	0.03

Variant	self-cleavage
GGCAGGGCUCAACGCAGCGUGGCAAAGUGGCUGUGUCUAGACUGUC [A6G A14G G36U C45U]	0.04
GGCAGCGCUCAACACAGCGUGGCAAAGGGGCUGUGGCUAGACUCCC [A6C U28G G44C]	0.14
GGCAGGGCUCCACACAGCGUGACAAAGUGGCUGUGGCUAGACUGCC [A6G A11C G22A]	0
GGCAGGGCUCAACGCAGCGUGACAAAGUGGCUGUGGCUAGACUGCC [A6G A14G G22A]	0.61
GGCAGGGCUCAACGCAGCGUGGCUAACUGGCUGUGGCUAGACUGCC [A6G A14G A24U G27C]	0.12
GGCAGCGCUCAACACAGCGAGGCAAAGUGGCUGCGGCUAGACUGCC [A6C U20A U34C]	0.24
GGCAGGGCUCAACACAGCGUGGCAAAGUGGCUGUGGCUUGACUGUC [A6G A39U C45U]	0.17
GGCAGGGCUCAGCACAGCGUGGCAAAGUGGCUGUGGCUAGACUGCU [A6G A12G C46U]	0.01
GGCAGCGCUCAACACAGCGAGGCAAAGUGGCUGUAGUUAGACUGCC [A6C U20A G35A C37U]	0.08
GGCAGGGCUCAACACAGCGUGGCAACGUGGCUGUGGCUAGACCGCC [A6G A26C U43C]	0.08
GGCAGGGAUCAACACAGCGUGGCAUAGUGACUGUGGCUAGACUGCC [A6G C8A A25U G30A]	0.36
GGCAGGGCUCAACACAGCGUGGCUAAGUGGCUGUGGUUAAACUGCC [A6G A24U C37U G40A]	0.08
GGCAGGGCUCAUCACAGCGUGGCUAAGUGGCUGUGGCUAGACUGCC [A6G A12U A24U]	0.08
GGCAGCGCUCAACACAGCGUGGCAAAGAGGCUGUGGCUAUACUGCC [A6C U28A G40U]	0.2
GGCAGGGGUCCACAGAGCGUGGCAAAUGGGCUGUGGCUAGACUGCC [A6G C8G A11C C15G G27U U28G]	0.01
GGCAGCGCCCAACACAGCGUGGCAAAGGGGCUGUUGCUAGACUGAC [A6C U9C U28G G35U C45A]	0
GGCAGCGCCCAACACAGCGUCGCAAAGUGUCUGUGGCUAGACUGCC [A6C U9C G21C G30U]	0
GGCAGGGCUCAACACGGCGUGGCAAAGUGGCUGUGGCUAAACUGCC [A6G A16G G40A]	0.02
GGCAGCGCGCGACACAGCGUGGAAAAGUGGCUGUGGCUAGACUCCC [A6C U9G A11G C23A G44C]	0.02

Variant	self-cleavage
GGCAGGGCUCAACACAGCGUGGCAAUGUGGCUGUCGCUAGACUGCC [A6G A26U G35C]	0.04
GGCAGGGCUCAACACAGCGUGGCAAUAUGCCUGUGGCUAGACUGCC [A6G A26U G27A G30C]	0.06
GGCAGGGCUCAACUCAGCGUGGCAAAGUCGCUGUGGCUAGUUUUCC [A6G A14U G29C A41U C42U G44U]	0.03
GGCAGGGAACAACACAGCGUGGCAAAGUGGCUGUGGCUAGACUGCC [A6G C8A U9A]	0.32
GGCAGGGAUCAACCCAGCGUGGCAAUGUGGCUCUGGCUAGACUGAC [A6G C8A A14C A26U G33C C45A]	0.07
GGCAGGGCUCUACACAGCUUGGCAAAGUGGCUGUGGCUAGACUGCC [A6G A11U G19U]	0.02
GGCAGGGAUCAAAACAGCGUGGCAAAGUGCCUGUGGCUAGACUGCC [A6G C8A C13A G30C]	0.16
GGCAGGGCUCUAGACAGCGUCGCAAAGUGGCUGCGGCUAGACUGCC [A6G A11U C13G G21C U34C]	0.01
GGCAGGGCUCCACCCAGCGUGGCAAGGUGGCUGUGGCUAGACUGCG [A6G A11C A14C A26G C46G]	0
GGCAGCGCUCAACACAGCGGGGCAAAGUCGCAGUGCCUAGACUCCC [A6C U20G G29C U32A G36C G44C]	0.04
GGCAGGGCUCAUCACAGCGUGGCAAGGUGGCAGUGGCUAUACUGCC [A6G A12U A26G U32A G40U]	0.06
GGCAGGGGUCAACACAGCCUGGCAAAACGGCUGUGGCUAGACUUCC [A6G C8G G19C G27A U28C G44U]	0.02
GGCAGGGCUCCACACAGCGUGGGAAAGUGGCUGCGGCUAGACCGGC [A6G A11C C23G U34C U43C C45G]	0.01
GGCAGGGCUCAACUCAGCGUGGCAAAGUGGCUGUGUCUAGACUGCC [A6G A14U G36U]	0.5
GGCAGGGCUCAGCACAGCGUGGCAAAGUGGAUUUGGCUAGACUGCC [A6G A12G C31A G33U]	0.08
GGCAGCGCUCAACACAGCGAGGCAAAGUGGCUGUGGGUAGACUGCC [A6C U20A C37G]	0
GGCAGCGCUCAACACAGCGGCGCAAAGUGGCUGUGGCUAGACUGCC [A6C U20G G21C]	0.14
GGCAGCGCGUAACACAGCGUGGCAAAGUGGCUGUGGCUAGUCUGCC [A6C U9G C10U A41U]	0.05
